Values belong to the binder of their own block, whether it stands above or below them.
Assays:
[1] = biological target: T1, membrane-bound B Lymphocyte Stimulator on U937 plasma membrane preparations (human, UniProt Q9Y275 1-285); test: phage ELISA
T1 construct: Natural protein in plasma membrane fractions of the human cell line U937 coated on ELISA plates; also called U937 plasma membranes; U937 membranes

[2] = biological target: T2, B Lymphocyte Stimulator, soluble form (human) (human, UniProt Q9Y275 in part, biotinylated with NHS-biotin where used as biotinylated B Lymphocyte Stimulator); test: phage competition ELISA
T2 construct: Coated on plastic, captured on streptavidin plates, amine-coupled to a CM5 chip or free in solution, depending on the assay; also called BLyS; immobilized B Lymphocyte Stimulator

[3] = biological target: T3, biotinylated B Lymphocyte Stimulator, soluble form (human, UniProt Q9Y275 in part, biotinylated with NHS-biotin, molar ratio 20:1 biotin:protein); test: phage scFv, receptor binding inhibition on IM9 cells
T3 construct: also called bio-B Lymphocyte Stimulator; free B Lymphocyte Stimulator
Procedure: Fifty-five μl of each appropriate phage supernatant was added to each well and the final volume in each well was 65 μl. Plates were then incubated at room temperature for 30 minutes.
Plates were washed three times in PBST and three times in PBS, tapped dry and 50 μl of streptavidin-Delfia (Wallac) was added to each well at 1:1000 dilution in the Manufacturer's assay buffer. The plates were then incubated at room temperature for 1 hour and washed six times in Delfia wash solution (Wallac). After tapping the plates dry, 100 μl per well of Delfia enhancement solution (Wallac) was added. The plates were gently tapped to encourage micelle formation, incubated at room temperature for 10 minutes, and fluorescence read on a Wallac 1420 workstation at […].

binding result [1]: binds | binding result [2]: binds
B1: I008C12 (scFv)
scFv: [about 100 residues omitted here]FNPTYDILTGYYIGGYFQHWGQGTMVTVSSGGGGSGGGGSGGGGSQSVLTQPASVSGSPGQSITISCTGTSSDVGGYNYVSWYQQHPGKAPKLMIYEGSKRPSGVSNRFSGSKSGNTASLTISGLQAEDEADYYCSSYTTRSTRVFGGGTQLTVLG

binding result [3]: binds
B2: I008C12 (scFv)
scFv: [about 100 residues omitted here]FNPTYDILTGYYIGGYFQHWGQGTMVTVSSGGGGSGGGGSGGGGSQSVLTQPASVSGSPGQSITISCTGTSSDVGGYNYVSWYQQHPGKAPKLMIYEGSKRPSGVSNRFSGSKSGNTASLTISGLQAEDEADYYCSSYTTRSTRVFGGGTQLTVLG
